In the supplement of paper PMC3334620:
Whole data set: some 33,000 sequences, median “E-score (-0.5 to 0.5)” near -0.016, cut for the highest 2% near 0.32. Some of the results follow.

molecular target: T1, Stp1 (UniProt B3LFK1); assay: PBM E-score (8-mer binding enrichment) (E-score (-0.5 to 0.5)); higher = stronger / more preferred TF binding; most listed sequences are background and not binding sites; conditions: protein concentration: 200 nM; construct: GST-full length
T1 sequence: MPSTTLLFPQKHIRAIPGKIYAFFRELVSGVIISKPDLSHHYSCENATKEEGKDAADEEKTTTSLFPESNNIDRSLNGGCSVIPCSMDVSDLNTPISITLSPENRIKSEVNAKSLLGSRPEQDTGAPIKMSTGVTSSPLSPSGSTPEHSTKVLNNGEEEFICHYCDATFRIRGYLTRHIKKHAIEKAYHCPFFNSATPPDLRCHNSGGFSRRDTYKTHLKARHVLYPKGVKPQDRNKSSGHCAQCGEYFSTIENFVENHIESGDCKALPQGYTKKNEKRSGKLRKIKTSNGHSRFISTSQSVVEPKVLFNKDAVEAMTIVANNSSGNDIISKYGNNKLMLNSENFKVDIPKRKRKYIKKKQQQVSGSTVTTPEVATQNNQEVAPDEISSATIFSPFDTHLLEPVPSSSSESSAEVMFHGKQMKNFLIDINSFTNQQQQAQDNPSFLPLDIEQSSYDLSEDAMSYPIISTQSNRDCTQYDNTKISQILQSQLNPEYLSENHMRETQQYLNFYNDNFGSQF
Outline: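 Full-length yeast transcription factors or their DNA-binding domains, GST-tagged and expressed with PURExpress, were applied at about 100-200 nM to universal all-10-mer Agilent arrays. These arrays had been made double-stranded by primer extension on fresh or once-stripped slides. Detection used fluorescent anti-GST, normalisation used masliner, and E-scores for ungapped eight-base words pooled with reverse complements came from the Universal PBM Analysis Suite.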

| Sequence | PBM E-score |
| --- | --- |
| CTTGAGTC | -0.198 |
| ATAGAGCG | -0.0336 |
| TACCGTGA | 0.0845 |
| GAGACGGA | 0.065 |
| CTTACATC | -0.0207 |
| AATTGCCC | 0.0223 |
| ACTTCTCT | -0.0547 |
| CTGACTTA | 0.0141 |
| GGTCTACA | -0.0389 |
| AAAGCTCG | -0.0977 |
| GTAAATGA | 0.0553 |
| ACTAATAT | 0.139 |
| AACGCAAC | 0.166 |
| ATCGGTCG | 0.00039 |
| GGCACCAA | 0.393 |
| ATTCGGAC | 0.179 |
| GATGTAGA | -0.00979 |
| GTTGGTGA | -0.0662 |
| ATTTGAGG | 0.0129 |
| GGTCACTA | -0.208 |
| CAGATGGC | 0.144 |
| CATATGGC | 0.207 |
| ACATGAAA | -0.121 |
| CGGGACAA | -0.107 |
| AATTACAT | 0.0379 |

| Sequence | PBM E-score |
| --- | --- |
| TGCGACCA | 0.0362 |
| GGCTCCGA | -0.00311 |
| AAATGTGC | 0.183 |
| AAGAACCA | -0.0227 |
| AATACGCT | -0.182 |
| AATTCAGT | -0.0742 |
| CAGGGAAC | -0.0813 |
| AGCCAAAG | -0.00729 |
| TCTCGGAA | 0.00252 |
| CATTCGAG | 0.0306 |
| AATTAAGG | -0.182 |
| CCGTGTGA | 0.303 |
| CGTGCAGA | 0.0736 |
| AAAGAAGT | 0.0744 |
| ACTGAGCA | -0.16 |
| ATGGGGGA | -0.364 |
| CAACTTGA | 0.16 |
| GTCGATAA | 0.0626 |
| AGATGGAC | -0.0364 |
| ATTCGGTA | 0.151 |
| GACTCATC | -0.209 |
| CAGGTGCC | 0.127 |
| ACGCACGG | 0.419 |
| AAACCTAA | -0.0315 |
| GAAGAACA | 0.0998 |

| Sequence | PBM E-score |
| --- | --- |
| ACAGGAAG | 0.147 |
| CCAACAAA | 0.167 |
| ACACAGCT | -0.203 |
| TAGGTGCA | -0.227 |
| AACGAATT | 0.0401 |
| GAAGATTA | 0.0958 |
| TCATCACA | -0.0752 |
| GATTTCTA | 0.168 |
| AGTTGACC | -0.0773 |
| CCAGAGAC | -0.19 |
| CATTGCAG | 0.0465 |
| CGACGGTA | 0.015 |
| CGAGAGGA | -0.0592 |
| ATAGCTAG | -0.182 |
| GTCAAGGA | -0.146 |
| CCCAGCAA | -0.132 |
| GCTAACCC | -0.212 |
| CTTTGGGC | -0.0803 |
| CAACGCTA | 0.0424 |
| CGCAACCA | -0.154 |
| AATGCGCT | -0.199 |
| ACGAATGG | 0.0871 |
| CTGTGGCC | 0.0391 |
| AGCTGTTC | -0.167 |
| CAATTAAG | 0.0879 |

| Sequence | PBM E-score |
| --- | --- |
| AAACAGGT | 0.0641 |
| AAAGCAAA | 0.229 |
| CACCCATC | -0.13 |
| GACCGTGA | -0.0295 |
| CTATAAAG | -0.0418 |
| GATTTGCC | 0.219 |
| AGCTACCA | -0.228 |
| AATCAGGT | 0.22 |
| TCAACTCA | -0.123 |
| GAGCCAAA | -0.0536 |
| AATCTCCC | -0.268 |
| AAGTTCAA | 0.0913 |
| ATGCAAGG | -0.0396 |
| AAAATATA | 0.192 |
| AGTTTGGA | 0.0815 |
| GCCGCACA | 0.452 |
| ATATAACC | -0.13 |
| GCAGCCCA | -0.213 |
| AAACCTAG | -0.137 |
| CCCTTTGA | -0.117 |
| AAGAAGGG | -0.162 |
| GGAAGAAA | 0.126 |
| TAGGGACA | -0.0441 |
| GCCAGGAC | -0.195 |
| AACAGCTA | -0.0534 |

| Sequence | PBM E-score |
| --- | --- |
| GAAGAGAC | 0.0735 |
| CACAACCC | -0.22 |
| CATTTAGC | 0.134 |
| GTAGAAGA | -0.131 |
| AATACGAA | 0.158 |
| CCGCCCTA | -0.041 |
| CCATATAA | 0.134 |
| AGCGTGCG | 0.237 |
| AACTGATT | -0.116 |
| GGAAGACC | -0.313 |
| ACGCCGAT | 0.23 |
| GAGCGTAA | 0.0231 |
| AGCCAACT | -0.143 |
| AGTATACT | -0.203 |
| CACCGGGA | -0.221 |
| ATTAGAAA | 0.0859 |
| GCAAAGGC | 0.188 |
| CACATAAG | -0.01 |
| ACGCTCTA | -0.189 |
| CTTTCCCA | -0.0508 |
| CGCTGCGA | -0.0861 |
| GGTGCCAC | 0.156 |
| TAATGATA | 0.232 |
| AAAATGAT | 0.142 |
| AAAGTTGG | -0.0678 |

| Sequence | PBM E-score |
| --- | --- |
| AGCGTAAC | 0.0577 |
| GACGAGTC | -0.0923 |
| CCGTTACG | 0.046 |
| CTAAGTAA | 0.107 |
| ACGTAACG | -0.0448 |
| AGGCACCT | 0.135 |
| AATCTGCT | 0.0271 |
| AGGTTGCC | -0.0941 |
| CTCAATCA | 0.0902 |
| CCTGGCCC | -0.0193 |
| AGCGCAAG | -0.14 |
| AGTGGGTC | -0.115 |
| CTCCGTCA | -0.191 |
| CGGTGTCA | -0.213 |
| ACTAGATG | 0.125 |
| GAATGAAA | 0.126 |
| CTTATAAG | 0.151 |
| AATTTGTC | -0.0333 |
| ATGCTCTA | 0.108 |
| CGGGTGAG | -0.0991 |
| TATAAGAA | -0.059 |
| CCTGCCAC | 0.19 |
| TCCGACAA | 0.0357 |
| CTTTTCGC | 0.229 |
| TCAAAACA | 0.119 |

| Sequence | PBM E-score |
| --- | --- |
| AACGTAGA | 0.0213 |
| CTCTTGCC | -0.0358 |
| ATCCGCAA | 0.00147 |
| CAACTCCG | -0.137 |
| AGCTAAGC | -0.118 |
| AACGGGTG | -0.0602 |
| CCCCGGCG | -0.174 |
| ACCCGCTG | -0.234 |
| CTCCGACC | -0.265 |
| AAAGCTCC | -0.157 |
| AACACTCC | 0.0466 |
| ATGCCGTC | 0.406 |
| GCTTAATA | 0.0221 |
| GCTTACCC | -0.138 |
| AAGTATGC | 0.0754 |
| ATATTTCG | 0.226 |
| AAACGGGC | 0.148 |
| TCACTCAA | -0.0432 |
| GATGGGAC | -0.263 |
| GATGTAAC | -0.016 |
| ATTCGTTG | 0.0381 |
| CATTCGAA | 0.0574 |
